The source of these data is ChEMBL document CHEMBL4888484, “Replenishing the malaria drug discovery pipeline: Screening and hit evaluation of the MMV Hit Generation Library 1 (HGL1) against asexual blood stage Plasmodium falciparum ,using a nano luciferase reporter read-out” (2022).

Out of some 150,000 compounds screened, about 540 (0.36%) showed an effect of 50% or more. Some of the results follow.

For this experiment, the system named is Plasmodium falciparum. Kind of experiment: Primary screen in NF54 nanoGlo assay, in single point, at 2uM, 72h; a lower Z score goes with more inhibition. As to conditions: timepoint 72 hour. The class given is functional, Erythrocyte.
For `Cc1nc([C@H](C)n2ccnc2-c2nc3ccccc3[nH]2)cs1`, the “% Inhibition” value was -4% and the Z score is reported as 0.68.

Take `O=c1c2c(ncn1Cc1cccc(F)c1OC(F)F)CCOC2`: the “% Inhibition” value worked out at 3% and the Z score is on record as -0.49.

Consider `C=CCOC1C[C@](OCc2cccc(OC)c2)(C(=O)NCCOC)C[C@H]2OC(C)(C)O[C@@H]12` (some centres undefined), for which the “% Inhibition” value is given as -9% and the Z score was determined as 1.65.

In the case of `CN(CCN1CCCC1=O)C(=O)Nc1ccc(Cl)cc1Cl`, the “% Inhibition” value was -12% and the Z score came out at 1.23.

On to `Cc1c(Cl)cccc1N1CC[C@@H](C(=O)NCC2CC2)C1=O`, for which the “% Inhibition” value was 4% and the Z score is -0.8.

For `Cc1cccnc1CC(=O)NCC1(CN2CCN(C)CC2)CC1`, the “% Inhibition” value is on record as -3% and the Z score is given as 0.68.

For the compound `CCc1ccc(NC(=O)Cn2nc3c(Oc4ccc(C(C)C)cc4)nccn3c2=O)cc1`, the “% Inhibition” value is given as -15% and the Z score amounted to 1.49.

For the compound `Cc1cnn(C)c1S(=O)(=O)N1CCN(Cc2nccn2C(F)F)CC1`, the “% Inhibition” value is given as -14% and the Z score came out at 1.82.

For `CC(C)n1nccc1C(=O)N(C)Cc1ncc[nH]1`, the “% Inhibition” value is given as -1% and the Z score was found to be 0.16.

In the case of `C[C@@H](CN(C)Cc1nccs1)c1ccccc1`, the “% Inhibition” value is reported as -24% and the Z score stood at 2.39.

Regarding `Cc1cc(F)cc2c1N(C(=O)c1ccc(Cn3ccnn3)o1)CCC2`, the “% Inhibition” value is recorded as -4% and the Z score is recorded as 0.4.

In the case of `CCCn1cnc(NC(=O)NCCc2nc(C)c(Cl)s2)n1`, the “% Inhibition” value is -1% and the Z score was 0.07.

For `CC(C)c1ccc(-c2cc(C(=O)N3CCCc4ccccc43)c3cc(Br)ccc3n2)cc1`, the “% Inhibition” value is given as -44% and the Z score was 5.12.

Turning to `CCN(CC)Cc1oc(C(C)(C)C)cc1C(=O)O`, the “% Inhibition” value is -18% and the Z score is 2.34.

With `O=C(Cn1cnnn1)N1CCN(Cc2ccc(Oc3ccccc3)o2)CC1`, the “% Inhibition” value is -1% and the Z score stood at 0.18.

Take `O=C1CCCc2[nH]c(=O)c(C(=O)N[C@@H](Cc3ccccc3)c3ccccc3)cc21`: the “% Inhibition” value is listed as -4% and the Z score is reported as 0.49.

As for `Cc1cc(Br)cc(C(=O)N(C)C2CC[S+]([O-])CC2)c1` (centres undefined), the “% Inhibition” value is -1% and the Z score is on record as 0.19.

In the case of `CC(=O)NCCNC(=O)c1ccc2c(c1)n(CC1CC1)c(=O)n2C1CCCCC1`, the “% Inhibition” value is 6% and the Z score is recorded as -1.29.

Turning to `Cc1nsc2ncc(C(=O)N3CCCCC3)c(N3CCC(C(=O)Nc4cc(F)ccc4F)CC3)c12`, the “% Inhibition” value amounted to 5% and the Z score is reported as -0.78.

As to `Cc1nnc(NC(=O)c2cc(-c3ccc(F)cc3)c[nH]2)s1`, the “% Inhibition” value is given as -15% and the Z score was found to be 2.23.

For `S=C1OCCN1CN1CCN(c2ncccn2)CC1`, the “% Inhibition” value is listed as -9% and the Z score is listed as 1.35.

On to `Cc1c([C@H]2CCOC(C)(C)C2)nc(N)c(C#N)c1C1CCNCC1`, for which the “% Inhibition” value was -15% and the Z score stood at 1.34.

Regarding `CC(C)=CCN1CCC(NC(=O)COC[C@H]2CCCO2)CC1`, the “% Inhibition” value is given as -4% and the Z score worked out at 0.51.

As for `COCC1(CNCc2cccc(-c3ccco3)c2)CCC1`, the “% Inhibition” value is 17% and the Z score is -3.48.

On to `COc1cccc([C@@H]2Cn3nnc(-c4nc(-c5ccccc5F)no4)c3CO2)c1`, for which the “% Inhibition” value is -24% and the Z score stood at 2.25.

In the case of `Cc1ccccc1OC1CCCCC1NC(=O)N(C)Cc1cn(C)nn1` (centres undefined), the “% Inhibition” value is recorded as -10% and the Z score is on record as 0.96.

As for `O=C(NCC1CC1)N[C@H]1CCN(C(=O)COc2ccccc2)C1`, the “% Inhibition” value is given as -4% and the Z score worked out at 0.54.

In the case of `CCn1nccc1CCN1CCOC2CCCCC21` (centres undefined), the “% Inhibition” value was found to be 6% and the Z score was -0.66.

For `Cc1nnc(N2CC(C(F)(F)F)C2)nc1C`, the “% Inhibition” value is given as -32% and the Z score amounted to 3.8.

With `CCCS(=O)(=O)NC1CCN(C(=O)C2C3CCCCC32)C1` (centres undefined), the “% Inhibition” value is -6% and the Z score was determined as 0.62.

Consider `CCN(CC)C(=O)Cn1c([C@H]2CC(=O)N(C3CCCC3)C2)nc2ccccc21`, for which the “% Inhibition” value is on record as -6% and the Z score is listed as 0.9.

Turning to `CO[C@H]1COC[C@@H]1NC(=O)C1CN(Cc2ccccc2)CCC1(F)F` (some centres undefined), the “% Inhibition” value is listed as -7% and the Z score was 1.37.

As to `CCC[C@@H](C(=O)O)n1ccc(NC(=O)c2cncc3sccc23)n1`, the “% Inhibition” value is -15% and the Z score came to 1.35.

Regarding `CNc1cc([C@H]2C[C@@H](NS(=O)(=O)c3cc(F)ccc3F)C2)nc(N)n1`, the “% Inhibition” value is reported as -18% and the Z score was 1.6.

Consider `COc1ccc(C2(CC(=O)N3CCCC(O)C3)CC(=O)N(CCC(C)C)C2=O)cc1` (centres undefined), for which the “% Inhibition” value is -6% and the Z score was found to be 1.04.

As for `O=C(CC(F)(F)F)N1CCN(Cc2cccc3[nH]ccc23)CC1`, the “% Inhibition” value is listed as -9% and the Z score is on record as 0.96.

Turning to `Cc1ccc(Cn2c(=O)c(C(=O)NCc3ccc4c(c3)OCO4)nn(-c3ccc(C(C)C)cc3)c2=O)cc1`, the “% Inhibition” value stood at 37% and the Z score was -5.64.

With `CCc1nn(C)c(CC)c1CC(=O)N[C@@H]1c2ccccc2CC[C@@H]1O`, the “% Inhibition” value is listed as 0% and the Z score was -0.01.

Take `Cc1nn(C2CCCC2)c2c1[C@@H](c1cnc(NC(C)C)nc1)CC(=O)N2`: the “% Inhibition” value is on record as -19% and the Z score is reported as 1.83.

Regarding `CNC(=O)C[C@H]1CCN(Cc2sccc2Cl)C1`, the “% Inhibition” value was -14% and the Z score amounted to 1.34.

On to `CCn1nnc2cc(C(=O)N3CCN(C(c4ccccc4)c4ccccc4)CC3)ccc21`, for which the “% Inhibition” value was 32% and the Z score is given as -3.63.

As to `Cc1cc(-c2nn(-c3ccccc3F)cc2CN(Cc2nccn2C)C(C)C)c(C)s1`, the “% Inhibition” value was -17% and the Z score worked out at 3.18.
